Data from ChEMBL document CHEMBL4888484, “Replenishing the malaria drug discovery pipeline: Screening and hit evaluation of the MMV Hit Generation Library 1 (HGL1) against asexual blood stage Plasmodium falciparum ,using a nano luciferase reporter read-out” (2022).
About 540 (0.36%) of roughly 150,000 compounds showed an effect of 50% or more. This is one part of the list.

These compounds were tested on Plasmodium falciparum (assay: Primary screen in NF54 nanoGlo assay, in single point, at 2uM, 72h; a lower Z score goes with more inhibition). Conditions: timepoint 72 hour.
Type: functional, Erythrocyte
In the case of `NC(=O)C[C@H](NCC(F)(F)F)C1CCCCC1`, the “% Inhibition” value is reported as -2% and the Z score is reported as 0.28.
`CCCCN1CCn2nc(CCC(=O)N3CCC(O)CC3)cc2C1` was tested, and the “% Inhibition” value was 6% and the Z score was -0.9.
With `CN(C[C@H]1COCCO1)C(=O)c1ncccc1O` the “% Inhibition” value was 1% and the Z score was -0.16.
In the case of `Cc1cc2nc3n(c(=O)c2n1CC(=O)Nc1ccc2c(c1)OCCO2)CCCC3`, the “% Inhibition” value is reported as 3% and the Z score is reported as -0.35.
In the case of `COC(=O)[C@]1(C)CN(C(=O)NCc2ccc(O)c(OC)c2)C[C@H]1C`, the “% Inhibition” value is reported as -7% and the Z score is reported as 1.27.
With `Cn1cc(C(O)CC2CCCN2CC(=O)Nc2nccs2)cn1` (stereo not given) the “% Inhibition” value was -1% and the Z score was 0.21.
In the case of `Cc1csc(CNC(=O)Nc2ccccn2)n1`, the “% Inhibition” value is reported as -3% and the Z score is reported as 0.59.
For `Cc1cc(S(=O)(=O)N2CCC[C@H]2c2ncccn2)c(C)o1`, the “% Inhibition” value was 3% and the Z score was -0.45.
With `CCc1c(C)nn(CCNc2nnc(C3CC3)o2)c1C` the “% Inhibition” value was -1% and the Z score was 0.18.
In the case of `COc1cccc(N2C(=O)c3cc(Br)ccc3N[C@@H]2c2cc(Br)ccc2OCc2ccccc2)c1`, the “% Inhibition” value is reported as 26% and the Z score is reported as -2.98.
With `CC(=O)OCC(=O)Nc1ccc(S(N)(=O)=O)cc1` the “% Inhibition” value was -10% and the Z score was 1.85.
In the case of `Cc1noc(C)c1CS(=O)(=O)CCn1cnc2ccccc2c1=O`, the “% Inhibition” value is reported as -9% and the Z score is reported as 0.9.
With `Cn1c(=O)c2c(nc(OC(c3ccccc3)c3ccccc3)n2C)n(C)c1=O` the “% Inhibition” value was -8% and the Z score was 1.09.
With `CCCC(C#N)(CCC)NC(=O)Cc1ccccc1OC` the “% Inhibition” value was 3% and the Z score was -0.4.
With `Cc1cc(S(N)(=O)=O)c(C)cc1NCc1nc(C)c(C)s1` the “% Inhibition” value was -12% and the Z score was 2.37.
With `COC(=O)[C@H]1Cc2[nH]ncc2N(C(=O)COc2ccc(OC)cc2)C1` the “% Inhibition” value was 1% and the Z score was -0.18.
With `Cc1noc(C)c1S(=O)(=O)NC[C@@H](c1ccsc1)n1cccn1` the “% Inhibition” value was -5% and the Z score was 1.01.
In the case of `CN(C)c1ccc(O[C@H]2CCN(C(=O)c3ccc(C#N)cc3)C2)nn1`, the “% Inhibition” value is reported as -11% and the Z score is reported as 1.25.
`NC(=O)c1cc(Br)c(N)c(Br)c1` was tested, and the “% Inhibition” value was 8% and the Z score was -1.02.
For `C#CC(C)(C)OCC(O)CN1CC(C)OC(C)C1` (stereo not given), the “% Inhibition” value was -20% and the Z score was 1.81.
For `COc1cccc(-c2nnnn2[C@H]2CO[C@H]3[C@@H]2OC[C@@H]3NC(=O)c2ccc(C(F)(F)F)cc2)c1`, the “% Inhibition” value was -10% and the Z score was 1.54.
With `CC(C)c1nn(C)cc1-c1noc(C(=O)Nc2ccccc2)n1` the “% Inhibition” value was 0% and the Z score was -0.06.
With `CCCNC(=O)N1CCC[C@](c2nnnn2C2CCCC2)(N(C)C)C1` the “% Inhibition” value was -13% and the Z score was 1.76.
For `CCN1CCN(CC(=O)N2CC(COC)(c3ccccc3)C2)CC1`, the “% Inhibition” value was -3% and the Z score was 0.55.
For `CCN1C[C@@H](C(=O)N2CCN(c3ncccn3)CC2)CCC1=O`, the “% Inhibition” value was 2% and the Z score was -0.21.
With `NC(=O)c1cnc(NC(=O)[C@@H]2CCCO2)s1` the “% Inhibition” value was -3% and the Z score was 0.66.
In the case of `O=C(CCCc1cn[nH]c1)N1CCC(Cn2ccnc2)CC1`, the “% Inhibition” value is reported as -2% and the Z score is reported as 0.27.
`O=C(Cc1nnc(-c2ccc(Br)cc2)o1)N1CCN(c2ccccc2)CC1` was tested, and the “% Inhibition” value was -5% and the Z score was 0.73.
In the case of `COC(=O)[C@@H]1C[C@@H](O)CN1c1ccc(C(F)(F)F)cn1`, the “% Inhibition” value is reported as 3% and the Z score is reported as -0.39.
For `Cc1ncc(C(=O)N(C)CCc2ccc(Cl)cc2)c(C2CC2)n1`, the “% Inhibition” value was -1% and the Z score was 0.18.
In the case of `Cc1csc(N2CCC(C(=O)N3CCCC(C)C3CN)CC2)n1` (stereo not given), the “% Inhibition” value is reported as -3% and the Z score is reported as 0.37.
`COc1ccc(OC)c(S(=O)(=O)N2CCC[C@H]2C(=O)N2CCc3ccccc3C2)c1` was tested, and the “% Inhibition” value was -8% and the Z score was 1.29.
In the case of `COc1ccc(S(=O)(=O)N[C@H]2CCCc3cn(CC(=O)N(C)C)nc32)cc1`, the “% Inhibition” value is reported as 7% and the Z score is reported as -0.93.
`Cc1ccnc(-n2cc(S(=O)(=O)NC(=O)c3c(C4CC4)cnn3C)cn2)c1` was tested, and the “% Inhibition” value was -6% and the Z score was 0.85.
`CC(C)(C)c1ncc(C(=O)Nc2cccc(CCC(=O)O)c2)cn1` was tested, and the “% Inhibition” value was -1% and the Z score was 0.08.
In the case of `Cc1nc(N2CCCC2)nc(C)c1NC(=O)c1ccccn1`, the “% Inhibition” value is reported as 3% and the Z score is reported as -0.48.
For `CC(NC(=O)C1CCCC1)C(=O)N1C[C@@H](F)C[C@H]1CO` (stereo not given in full), the “% Inhibition” value was -11% and the Z score was 1.49.
In the case of `O=C(Nc1ccc(OCc2ccco2)cc1)N1C[C@@H]2[C@H](C1)[C@H]1CC[C@@H]2O1`, the “% Inhibition” value is reported as -21% and the Z score is reported as 3.23.
For `Cc1nc(Nc2ccc3c(c2)OCCO3)c2c(C)noc2n1`, the “% Inhibition” value was -11% and the Z score was 1.33.
With `Cc1ccc(CN(Cc2ccc(F)cc2)C(=O)CN(C[C@H]2CCCO2)C(=O)Nc2ccc(C#N)cc2)o1` the “% Inhibition” value was -16% and the Z score was 1.57.
For `Cn1cc(Cl)c(CNC(=O)[C@@H]2Cc3ccc(F)cc32)n1`, the “% Inhibition” value was -14% and the Z score was 1.25.
`COCCc1nsc(N(C)Cc2ccc(O)cc2)n1` was tested, and the “% Inhibition” value was -10% and the Z score was 1.15.
For `O=C(NC1CCCCC1)[C@@H]1CCCc2ccccc21`, the “% Inhibition” value was -16% and the Z score was 1.41.
In the case of `COCCN1C(=O)CC(CC(=O)N(C)C(C)c2nc(C)cs2)(c2ccccc2OC)C1=O` (stereo not given), the “% Inhibition” value is reported as 1% and the Z score is reported as -0.22.
With `COc1ccc(-c2cc(-c3cc(C#N)n(C)c3C)c(C#N)c(N)n2)cn1` the “% Inhibition” value was -21% and the Z score was 2.63.
With `Cc1ccc(CC(=O)NOCC(=O)N(C(C)C)C(C)C)cc1` the “% Inhibition” value was -9% and the Z score was 1.17.
`O=C([C@H]1C[C@@H]1C(F)F)N1CCn2ccnc21` was tested, and the “% Inhibition” value was 2% and the Z score was -0.17.
In the case of `Cc1ccc(C(=O)N2CCn3cccc3[C@H]2c2ccccn2)cc1OCCN`, the “% Inhibition” value is reported as 4% and the Z score is reported as -0.6.
`CN(CCC(=O)Nc1ccnn1C1CCCC1)Cc1ccccc1OC(F)(F)F` was tested, and the “% Inhibition” value was 0% and the Z score was -0.03.
`O=C(NCc1nccs1)c1cc(F)c[nH]1` was tested, and the “% Inhibition” value was -9% and the Z score was 1.73.
With `CNC(=O)N1CCC(OC(C)=O)CC1` the “% Inhibition” value was -10% and the Z score was 1.77.
For `Cc1ccc(OCCc2nnc(NC(=O)[C@@H]3C=CCN3)s2)cc1`, the “% Inhibition” value was -10% and the Z score was 1.5.
`C[C@H]1CCCN(C(=O)CCS(=O)(=O)C2CCCC2)C1` was tested, and the “% Inhibition” value was -9% and the Z score was 0.77.
In the case of `CCOCC(=O)N1CCC[C@@]2(CCC(=O)N(Cc3cnc(C)cn3)C2)C1`, the “% Inhibition” value is reported as -9% and the Z score is reported as 1.21.
`O=c1c2ccccc2sn1Cc1cc(=O)n2ccsc2n1` was tested, and the “% Inhibition” value was -1% and the Z score was 0.15.
